In all, about 350,000 compounds went through this assay and about 31,000 (8.9%) were called active. Inconclusive results, whose numbers are uncertain, are shown with a selection of clear calls. Calls come from the whole dose curve; as a rule, active = well fitted inhibition curve with a large enough effect; inconclusive = small, poorly fitted or top-dose-only effect; inactive = no such curve, though single readings can be large or run the other way. Where the call is inconclusive, the potency comes from a doubtful curve fit.
Target: Histone-lysine N-methyltransferase EHMT2 (Homo sapiens) (UniProt Q96KQ7)
Chain of UniProt Q96KQ7 (Q96KQ7 whole entry, looked up): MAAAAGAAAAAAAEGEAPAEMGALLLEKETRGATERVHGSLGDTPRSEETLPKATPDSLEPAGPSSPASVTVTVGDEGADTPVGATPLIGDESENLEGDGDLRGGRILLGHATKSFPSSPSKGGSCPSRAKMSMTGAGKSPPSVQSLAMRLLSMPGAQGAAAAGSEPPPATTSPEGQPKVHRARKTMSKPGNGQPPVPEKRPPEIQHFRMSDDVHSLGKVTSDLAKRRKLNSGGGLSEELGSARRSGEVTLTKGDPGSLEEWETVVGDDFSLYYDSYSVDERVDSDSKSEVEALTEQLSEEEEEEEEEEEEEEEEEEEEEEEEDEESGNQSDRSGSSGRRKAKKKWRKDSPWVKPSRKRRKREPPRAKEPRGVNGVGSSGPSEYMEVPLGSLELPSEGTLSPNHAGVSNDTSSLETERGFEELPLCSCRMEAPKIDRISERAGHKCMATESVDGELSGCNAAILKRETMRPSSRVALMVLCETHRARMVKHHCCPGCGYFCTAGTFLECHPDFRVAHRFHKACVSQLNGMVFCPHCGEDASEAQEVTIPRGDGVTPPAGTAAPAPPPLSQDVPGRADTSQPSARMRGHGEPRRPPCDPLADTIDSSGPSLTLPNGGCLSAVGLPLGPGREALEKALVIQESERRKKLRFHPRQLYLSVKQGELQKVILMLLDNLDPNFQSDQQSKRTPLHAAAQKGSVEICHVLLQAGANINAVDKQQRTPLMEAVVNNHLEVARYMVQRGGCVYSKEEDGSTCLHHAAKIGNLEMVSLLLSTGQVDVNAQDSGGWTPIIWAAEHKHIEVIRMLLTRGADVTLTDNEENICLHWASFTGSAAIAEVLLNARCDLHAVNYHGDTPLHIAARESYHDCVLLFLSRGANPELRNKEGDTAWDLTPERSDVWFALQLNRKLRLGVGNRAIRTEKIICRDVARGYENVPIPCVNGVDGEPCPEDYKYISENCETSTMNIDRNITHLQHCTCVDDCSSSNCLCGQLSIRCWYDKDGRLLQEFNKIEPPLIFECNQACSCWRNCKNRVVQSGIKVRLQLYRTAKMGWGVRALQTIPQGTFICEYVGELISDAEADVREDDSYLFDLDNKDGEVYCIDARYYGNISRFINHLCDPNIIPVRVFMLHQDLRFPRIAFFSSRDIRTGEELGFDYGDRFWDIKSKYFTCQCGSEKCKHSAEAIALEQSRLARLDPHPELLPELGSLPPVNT
Experiment: qHTS Assay for Inhibitors of Histone Lysine Methyltransferase G9a; note: nearly all actives have a fitted effect of over 75% in size
Conditions: G9a H3K9 monomethylation, AlphaScreen, 2 h; activity, negative = inhibition: at 59 µM (top of the series) unless noted
How it was run: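 G9a (20 nM) was preincubated 15 min with compound, then reacted 2 h at room temperature with 500 nM biotin-H3K9 peptide and 20 µM SAM. Monomethyl-H3K9 detected by AlphaScreen using anti-H3K9me1 antibody.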
% is set by controls: 0 for no effect and ±100 for the full control effect; potency is the fitted concentration of half-maximal effect; tags give direction and shape of the fitted curve.

SMILES | Potency | activity, negative = inhibition
O=C1CC(Sc2ncccc2C(=O)O)C(=O)N1 (stereo unspecified) | inconclusive: 44.7 µM [inhibitor, partial curve, poor fit] | –
Cc1c2cnn(CC(=O)Nc3cccc(C(F)(F)F)c3)c(=O)c2c(C)n1Cc1ccccc1Cl | – | inactive: 8.48%
Cc1nnsc1NC(=O)OCCCl | inconclusive: 89.1 µM [inhibitor, partial curve, poor fit] | –
Clc1ccccc1-c1ncc2ccccn12 | inconclusive: 25.1 µM [inhibitor, full curve] | –
Cc1nc2nc(-c3ccc(Cl)cc3)cn2nc1C | – | inactive: 26.6% [at 12.7 µM]
COc1ccc(N2CCN(C(=O)c3ccc(-c4nc(COc5ccccc5)c(C)o4)cc3)CC2)cc1 | inconclusive: 3.55 µM [inhibitor, partial curve, poor fit] | –
Cc1nc(C)c(C(=O)C2=C(O)C(=O)N(CCN3CCOCC3)C2c2ccco2)s1 (stereo unspecified) | inconclusive: 3.98 µM [inhibitor, single point] | –
Cc1cccc(N=Nc2ccc(O)c3ncccc23)c1 | active: 7.08 µM | –
COc1ccc(OC)c(S(=O)(=O)Nc2ccc(O)c(Sc3ncn[nH]3)c2)c1 | active: 7.94 µM | –
COc1cccc(C2C(C(=O)Nc3ccc(C)cc3C)=C(C)Nc3c(C(=O)Nc4cccc(C)c4)cnn32)c1OC (stereo unspecified) | – | inactive: -3.15%
CC(C(=O)Nc1cccc(S(=O)(=O)N2CCOCC2)c1)N1CCN(C)CC1 (stereo unspecified) | – | inactive: 5.42% [at 102 µM]
C=CCNc1oc(-c2ccc(OC)cc2)nc1C#N | active: 56.2 µM | –
COc1ccc(Nc2nc(N)c([N+](=O)[O-])c(N3CCCC3)n2)cc1 | inconclusive: 89.1 µM [inhibitor, single point] | –
Cc1csc(=O)n1CC(=O)OCC(=O)N(CC(C)C)c1c(N)n(Cc2ccccc2)c(=O)[nH]c1=O | – | inactive: 6.53% [at 102 µM]
CCc1ccc2nc(N(CCCN(C)C)C(=O)c3ccc(C(=O)c4ccccc4)cc3)sc2c1 | active: 44.7 µM | –
COc1ccc(/C=C2/C(=O)N(c3cccc(F)c3)N=C2C)c(OC)c1 | – | inactive: 19.3% [at 0.501 µM]
CC(NC(=O)CCCn1c(=O)c2cccn2c2cccnc21)c1ccccc1 (stereo unspecified) | – | inactive: 1.23%
Cc1nc2sc3c(c2c(=N)n1N)CC(C)(C)OC3 | inconclusive: 89.1 µM [inhibitor, single point] | –
CCOC(=O)C(=O)Nc1sc(C(=O)N(CC)CC)c(C)c1C#N | active: 50.1 µM | –
COc1ccc(C(C)C)cc1S(=O)(=O)NCCc1c(C)[nH]c2ccc(C)cc12 | inconclusive: 25.1 µM [inhibitor, partial curve, poor fit] | –
COc1ccc(/C=C/C(=O)N(C(C)C)C(C)C)cc1Br | inconclusive: 2.51 µM [inhibitor, partial curve, poor fit] | –
COC(=O)c1cc(NC(=O)c2cc(C)oc2C)cc(C(=O)OC)c1 | inconclusive: 39.8 µM [inhibitor, single point] | –
C/C(=N\NC(=O)c1cccc(S(=O)(=O)Nc2cccc(Cl)c2)c1)c1cccs1 | – | inactive: 10.9% [at 102 µM]
O=C(Nc1ccncc1)c1cncc(Br)c1 | inconclusive: 5.62 µM [inhibitor, partial curve, poor fit] | –

SMILES | Potency | activity, negative = inhibition
c1ccc2c3c([nH]c2c1)-c1[nH]ncc1CC3 | active: 35.5 µM | –
CCn1c2ccccc2c2cc(NC(=O)c3ccc(C)c([N+](=O)[O-])c3)ccc21 | inconclusive: 20 µM [inhibitor, single point] | –
CCN(CCCNC(=O)c1cc2c(=O)n(CC)c3ccccc3c2s1)c1ccccc1 | inconclusive: 8.91 µM [inhibitor, partial curve, poor fit] | –
N#C/C(=C\c1ccco1)C(=O)Nc1cccc2ncccc12 | active: 50.1 µM | –
CCOc1ccc(Br)cc1C1=NN(C(C)=O)C(c2ccc([N+](=O)[O-])s2)O1 (stereo unspecified) | inconclusive: 79.4 µM [inhibitor, partial curve, poor fit] | –
CCc1ccc(CNC(=O)CSc2cc(=O)n(C)c3ccc(Cl)cc23)cc1 | – | inactive: 2.68%
COc1ccc(C(=O)NCC(=O)OCC(=O)Nc2sccc2C#N)cc1OC | inconclusive: 39.8 µM [inhibitor, partial curve, poor fit] | –
CC(=O)NC12CC3CC(C1)CC(C(=O)Nc1nc4ccc(F)cc4s1)(C3)C2 | inconclusive: 70.8 µM [inhibitor, single point] | –
O=C(CSc1nccn1Cc1ccc(F)cc1)Nc1ccc2c(c1)OCCO2 | – | inactive: -49.7%
Cc1cc(F)ccc1NCc1ccccc1-c1nnc(-c2ccccc2Cl)o1 | inconclusive: 22.4 µM [inhibitor, partial curve, poor fit] | –
CCOC(=O)CC1Sc2ccccc2NC1=S (stereo unspecified) | active: 44.7 µM | –
CCOC(=O)C1=C(CC)OC(N)=C(C#N)C1c1ccc(OC)cc1OC (stereo unspecified) | – | inactive: -12.3%
CCN1C(=O)CC(N2CCC(Nc3ccc(OC)cc3)CC2)C1=O (stereo unspecified) | inconclusive: 2 µM [inhibitor, partial curve, poor fit] | –
CCC(C)[C@H](NC(=O)Nc1ccc2c(c1)OCCO2)C(=O)O (stereo partly specified) | inconclusive: 89.1 µM [inhibitor, single point] | –
C=CCN(CC=C)CCOc1cccc(Oc2ccccc2)c1 | active: 14.1 µM | –
CC(C)[C@H](NC(=O)[C@@H]1Cc2ccccc2CN1)C(=O)Nc1ccc2c(c1)OCCO2 | inconclusive: 100 µM [inhibitor, single point] | –
Cc1ccc(F)cc1NC(=O)c1c(-c2ccccc2)noc1C | – | inactive: -8.58% [at 102 µM]
CCc1ccc(C(=O)c2cn(CC(=O)Nc3ccc(OC)cc3OC)c3ccc(CC)cc3c2=O)cc1 | inconclusive: 28.2 µM [inhibitor, single point] | –
CC(C)(C)c1ccc(OCCC(=O)NNC(=O)c2ccncc2)cc1 | – | inactive: 18.6% [at 12.7 µM]
COc1ccc(N2CCN(CC(=O)Nc3ccccc3C(=O)NCc3ccccc3)CC2)cc1 | inconclusive: 3.55 µM [inhibitor, single point] | –
CN(C(=O)CSc1nnc(C2CC2)n1C)C1CCCc2ccccc21 (stereo unspecified) | inconclusive: 89.1 µM [inhibitor, single point] | –
O=c1cc(O)c2sc3nc(-c4cccnc4)cc(C(F)(F)F)c3c2[nH]1 | inconclusive: 3.98 µM [inhibitor, partial curve, poor fit] | –
CCOc1cccc(SCc2noc(C(=O)NCCOC)c2C(=O)O)c1 | inconclusive: 8.91 µM [inhibitor, single point] | –
CC(=O)c1ccc(NC(=O)C(C)OC(=O)COc2ccc(C#N)cc2)cc1 (stereo unspecified) | inconclusive: 70.8 µM [inhibitor, single point] | –

SMILES | Potency | activity, negative = inhibition
COc1ccc(CCN(C)CC(O)c2ccccc2)cc1OC (stereo unspecified) | active: 28.2 µM | –
CCN(C(=O)CN1CCN(C)CC1)c1cccc2ccccc12 | active: 1.78 µM | –
Oc1c(Br)cc2oc3c(c2c1CNCc1ccccc1)CCCC3 | inconclusive: 10 µM [inhibitor, full curve, poor fit] | –
O=c1c2c3n(c(=S)nc2[nH]n1-c1ccccc1)CCCCC3 | active: 50.1 µM | –
CN1CCN(S(=O)(=O)c2ccc(SCCOc3ccc(Cl)cc3)nc2)CC1 | inconclusive: 39.8 µM [inhibitor, single point] | –
CCCc1ccc(OCC(O)CN2CCN(c3ccccn3)CC2)cc1 (stereo unspecified) | active: 50.1 µM | –
CC(C)Cn1[nH]c2c3c(ccc2c1=O)C(=O)c1ccccc1C3=O | inconclusive: 2.51 µM [inhibitor, full curve, poor fit] | –
CCCCCCn1c(SCCCC)nc2c1c(=O)[nH]c(=O)n2C | inconclusive: 22.4 µM [inhibitor, partial curve, poor fit] | –
COc1ccc(-n2cnnc2SCC(=O)c2cc(C)n(Cc3cccs3)c2C)cc1 | inconclusive: 20 µM [inhibitor, single point] | –
Cc1ccc2cc(CN(CCCO)S(=O)(=O)c3cccc4nsnc34)c(=O)[nH]c2c1 | inconclusive: 89.1 µM [inhibitor, partial curve, poor fit] | –
Cc1cc(C)n2cc(CSc3nc4ccccc4s3)nc2n1 | inconclusive: 39.8 µM [inhibitor, single point] | –
CCN(CCNC(=O)C1CCN(S(=O)(=O)c2cccc3nsnc23)CC1)c1ccccc1 | active: 50.1 µM | –
Cc1ccccc1CN(C)CC(=O)NC(C)CCc1ccccc1 (stereo unspecified) | – | inactive: -0.363% [at 102 µM]
O=C(O)c1c[nH]ccc1=O | – | inconclusive: -103% [inhibitor]
Cc1nn(-c2ccccc2)c(Cl)c1C(=O)OC(C)C(=O)Nc1ccc2c(c1)OCO2 (stereo unspecified) | inconclusive: 44.7 µM [inhibitor, partial curve, poor fit] | –
CC(C)(C)NCC(O)COc1c(F)cc(Br)cc1F (stereo unspecified) | – | inactive: 8.33%
CC(SCC(=O)Nc1ccc(S(=O)(=O)N2CCCCC2)cc1)C(=O)O (stereo unspecified) | – | inactive: 14.3% [at 102 µM]
O=C(Nc1nnc(SCc2ccc(F)cc2)s1)c1ccc2c(c1)C(=O)N(c1ccccc1Cl)C2=O | inconclusive: 50.1 µM [inhibitor, partial curve, poor fit] | –
Cc1cc(C)cc(OCC(=O)Nc2ccc(S(=O)(=O)Nc3onc(C)c3C)cc2)c1 | inconclusive: 39.8 µM [inhibitor, single point] | –
CC(=O)c1cccc(NC(=O)CC2S/C(=N/N=C/c3ccccc3)NC2=O)c1 (stereo unspecified) | – | inactive: 41.6%
CCOC(=O)c1nn(-c2ccc(Cl)cc2Cl)c(=N)c(C#N)c1C | – | inconclusive: -62.4% [inhibitor]
COc1ccc(CNC(=O)Cn2c(SCC(=O)Nc3ccc(C)c(C)c3)nc3ccccc32)cc1 | – | inactive: 16.6%
O=C1CN(C(=O)c2ccc(Br)o2)C(c2ccccc2)c2cc(Br)ccc2N1 (stereo unspecified) | inconclusive: 28.2 µM [inhibitor, single point] | –

From PubChem BioAssay AID504332 (National Center for Advancing Translational Sciences (NCATS), 2011)
